# According to the supplement of paper PMC11417369:
# The other results are listed elsewhere or left out.
# System: PfAP2-HC AP2 domain (GST-tagged)
# Assay: gcPBM binding intensity (ln(normalized median fluorescence intensity)); higher = stronger DNA binding
# Method in brief: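 In this array assay, P. falciparum DNA-binding domains with a GST tag, expressed in E. coli, were applied for 1 h to primer-extended double-stranded 36-bp intergenic genomic probes and negative controls on an Agilent 4 × 180k array. Bound protein was visualised with Alexa488 anti-GST antibody at 488 nm. Binding intensity is the highest Masliner-normalised natural-log median intensity across replicate spots of either probe orientation.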
row,Sequence,gcPBM binding intensity (ln)
1,AAAAATTCAATAGGACGTACTAAAACATTCATTAAT [XGTACX_site1712],9.6
2,TTTAGTGTTATAAAAAGTACATAATAATTCCTTTTC [XGTACX_site3208],9.42
3,TTATAAATAATGAGAAACATTAAATTTAATCATAAA [CACACA_negctrl_site523],9.53
4,TACTATATATATATATATATATATATATATATTTAT [GTGCAC_negctrl_site593],9.61
5,TAGTATTAAATATATACACACATATATACCTATAGA [CACACA_site5219],9.78
6,AAAATGTAATATTGGGTGCACAATAAGTTTGATGTC,10
7,TGAAAAGATAAAAAAAGTACACACACACATATATAT [XGTACX_site6504],10.6
8,AATATGTACAGACATACACACATATTTATATTTATA [CACACA_site6694],9.88
9,TTATATAAAGAATGTACACACAGAAATGCACAGACA [CACACA_site5288],10.1
10,GCTTATATTAATAAGGTGCTTTTTATTTCGTGTGTA [GTGCAC_site9649],9.92
11,TCATAGTATAAACACACACACACACCCATATATATA [CACACA_site8512],11
12,AGAATGGTTTATAAAGGTACGTAATTTTTAATTTTA [XGTACX_site383],9.51
13,ATATGTCCATATAGTAAATGTTACATTTTAAAGCGC [XGTACX_negctrl_site168],9.61
14,CATATTTTGTGAAAAAGTACATATATATATATATAT [XGTACX_site6295],9.51
15,AAAATATTTATTTTTTGTACACATAAAAACGCACTT [XGTACX_site4132],9.68
16,ATTCTTAAAAAATAAGTGCAAAATAATTAAATAAAT,9.67
17,TATTGAATAAAATGCACACGCATGCGTTATTTATTA [CACACA_site3479],9.69
18,AAACGTATTCTATAAAGTACATTATTATAGTAGACC [XGTACX_site8068],9.68
19,TAAAAAAATTATATTTGTACATATTAATATAGCCTT [XGTACX_site4833],9.63
20,TTATAATTAAATTTCACACAGTTCATAACATAATTA [CACACA_site5501],9.5
21,TAAGGGAGAGATTTGTATCATAAGCAACTTTCAAAA [CACACA_negctrl_site1436],9.47
22,TTTATATGTTTTAAGTGTACACATATAATGTATTTT [XGTACX_site3069],9.76
23,ACTTTCAACATGAAGTTGCACTTTTTTTTTTTTCTT,9.93

row,Sequence,gcPBM binding intensity (ln)
1,AGCCCTTTTTTTTTTTAGAATATTGCATAATTATAT [XGTACX_negctrl_site546],9.75
2,TATATAAATATATCCACACACATACCTATATTAATA [CACACA_site6184],10.4
3,GTATTGTATGGATGGGGTACTATATATATATATTTT [XGTACX_site1694],10
4,AGACAATATTAATAAGGTACACATATATATTAAAAA [XGTACX_site6709],9.78
5,TAATTAAATAAAAAAAAATATATATATATATATATA [XGTACX_negctrl_site616],9.58
6,TTTTTTAAAAATAACTGTACAGAGGCTGTTAGGATA [XGTACX_site2521],9.54
7,TCCATATGCATGTATTGTACTGTAATATATTAAAAA [XGTACX_site472],9.38
8,AAAAAAAAAAAAGAAACACACACATATATATATATA [CACACA_site8525],10.7
9,AGCAGTCGACAGGACAGTACACAGTAGCCAGGAAAT [XGTACX_site4929],9.65
10,TAAATATATAAATACACACACACCAAAGCAATAGAT [CACACA_site5605],10.5
11,TTTGATAATAAGATATAATACTTAAATATATATATA [GTGCAC_negctrl_site339],9.36
12,AAATATATATTCAAAAGTACACAATTTGTTAATAAT [XGTACX_site8917],9.62
13,TATTTTACGCGGTTTATAATGACATGTTCTATATTT [CACACA_negctrl_site1184],9.79
14,TGAATATAACAAATATGTACTTAAAATTGTTATATT [XGTACX_site5679],9.47
15,CACACTTGCTCCTGTTGTACATAACCATAAGCAACA [XGTACX_site2102],9.58
16,ATTATTAAAAATATGGGTACATATTATTGTTATATA [XGTACX_site1958],9.46
17,TTATATTTTACAAATGCACACATAATTTTTTTTTTT [CACACA_site8890],9.7
18,AAAAAAAAAAAAAAATGTACATGACATGACATGACA [XGTACX_site4020],9.61
19,TAAAGAAATAAATACATACACACATATATATATATA [CACACA_site3363],9.89
20,AAACTTTACATTACTTGTACATATATTCTATATAAT [XGTACX_site8640],9.92
21,CACGCGCACCAACACACACACACACCCATATATATA [CACACA_site2204],11.1
22,GTTGGGTAATTCGTAACACACATAAAATATATATAA [CACACA_site3986],9.76
23,CTGTACACTTAAACGGTGCAAAAAGAAAAAAAAGAA,9.68

row,Sequence,gcPBM binding intensity (ln)
1,TGCCTATGACATGAATGTACATTAAAATTAAATAAA [XGTACX_site7126],9.48
2,TTTTTTTCTTAAAGATGTACTTTTTAAAAACAATCT [XGTACX_site986],9.26
3,CATTTTATAAAAACAAGTACCCAACATATATATAAT [XGTACX_site5955],9.64
4,AGACATATTCTTTTTACACACTTGAATAAAAAATAT [CACACA_site1205],9.56
5,GATGAGGACAGACACACACACATAAGTTGATACATA [CACACA_site7580],10.5
6,GTTTTTACTTTTATCTGTACATAATACTACCAATAT [XGTACX_site5414],9.8
7,TATATATTAAGATGCACACACAAGAAGTAATTATAA [CACACA_site5726],10
8,ATTTTTTCTTATAAAAAAGAAAAAGAAAAAGAAAAA [CACACA_negctrl_site1216],9.25
9,ACAGCTCTAGGACATGCATGTTATATAGAAAAAGAG [TGCATGCA_site703],9.65
10,AAGTTAATGTTTTGCGCACACTTCTTTTTAATATAA [CACACA_site3938],9.99
11,TTCTTTATATAAACAAGTACATATAAAATACATATA [XGTACX_site8036],9.48
12,AAATACATATTTAGAAGTACATTTATACATTTAATA [XGTACX_site8871],9.61
13,TTCATTAAAGTTATTACACACAGTTCTTCAACCAAA [CACACA_site7613],9.66
14,TGATATAAAATTAAAGTGCAAAAAAAAAATAAAAAA,9.79
15,ATAATATTATGAACCTGTACATAATTTTTCTTTTCT [XGTACX_site3377],9.62
16,TATAATTTTTTTGAATTATATATATATATATATAAT [XGTACX_negctrl_site26],9.37
17,AGTATATTTCTAACTTGTACGAAATTAATAATTTAT [XGTACX_site6635],9.47
18,TATATATAATATGAATGTACACAAAAAGGTAATACA [XGTACX_site6202],9.87
19,AAAAAAAAGAAATAGACACACATATATTTTTAAACA [CACACA_site3954],9.79
20,AGGAAATTTTTTTTTTTTTTTTTTTTTTTTTTTTAC [TGCATGCA_negctrl_site170],9.06
21,ATAATATATAATATAGTGCATTATTTATTAATTAAT [GTGCAC_site9852],9.46
22,TCCTAATGGTTTAATTGTACAAAAAAAAAAAATATA [XGTACX_site322],9.37
23,TGATAAGTATACTAAAGTACATGAAAAATAACTTCC [XGTACX_site6908],9.76

row,Sequence,gcPBM binding intensity (ln)
1,ATAGATGTCTTCATATGTACATAAATTCAAGTATAT [XGTACX_site7492],9.61
2,TGATTATAAAAGTAGGTGCTACAAAAATTACACATT [GTGCAC_site9530],9.56
3,CAAAATATTATGAATTGTACATATTTTAAAACGTTT [XGTACX_site1614],9.6
4,GGTCTTTTTATGATATGTACTTATATAATATTATAT [XGTACX_site6458],9.85
5,ATGTAGAAGTAATGCACACATATGTATATATATATA [CACACA_site2494],10.2
6,AACAGCATGAAGTAAAGTACTAGTTTTATTTATTTA [XGTACX_site1116],9.64
7,TTATATTTTAAGAAATGTACATGATATAATTATCAA [XGTACX_site8693],9.45
8,TGGATGAGGACATACACACACACATAAGTTGATACA [CACACA_site3423],10.3
9,TATTTCTTATGAAGGACATGCAATATTATTTATCTC [TGCATGCA_site683],9.52
10,AATGAAAAGGAACATACACACCCCATATAAATATAT [CACACA_site7588],10.3
11,TTTTTTTTAATTTTCTGTACAAATTTATATATACTA [XGTACX_site4251],9.7
12,AAATAAAAATTACAAGCATGCATTTTCCTATTTGCA [TGCATGCA_site861],9.51
13,GTGTAAAAATTAAAGTGTACACATATATATATATAT [XGTACX_site2251],9.7
14,TTTCGAATTAAAGCATGTGAAAATTTTCAAAAAATA [XGTACX_negctrl_site577],9.51
15,GAATCACTAATTTTTTTACACACCACAATTTAATTT [CACACA_site8311],10.1
16,ACAAAACATAATTGTTGTACAAAAAGAATTATATAT [XGTACX_site8422],9.85
17,ATAATAATATAATATTCACACAATTGAAATAGTGTA [CACACA_site6083],9.61
18,TTTCTATAATATTCTACACACCAACAACAAACATAT [CACACA_site6409],10
19,TATAAATATACAAAGGTGCATAAAAAGTTATGTTTT [GTGCAC_site9832],9.79
20,AAAAAATTTTGAAATTGTACATATATAAAAAATATA [XGTACX_site2629],9.5
